Consider 43 compounds from ChEMBL document CHEMBL4888484, “Replenishing the malaria drug discovery pipeline: Screening and hit evaluation of the MMV Hit Generation Library 1 (HGL1) against asexual blood stage Plasmodium falciparum ,using a nano luciferase reporter read-out” (2022).

Out of some 150,000 compounds screened, about 540 (0.36%) showed an effect of 50% or more. The list shows a part of the results.

In the assay the test system is Plasmodium falciparum. Nature of the assay: Primary screen in NF54 nanoGlo assay, in single point, at 2uM, 72h; a lower Z score goes with more inhibition. It counts as functional, Erythrocyte. Particulars: timepoint 72 hour.
For `COCC1(C(=O)NS(=O)(=O)c2c(F)cc(OC)cc2F)CCC1`, the “% Inhibition” value is -11% and the Z score was determined as 1.96.

As to `O=S(=O)(c1ccc(F)cc1F)N1CCN(c2nccc(-c3ccc(Oc4ccccc4)cc3)n2)CC1`, the “% Inhibition” value is 0% and the Z score was -0.04.

For the compound `Cc1cccc(N2CCN(C(=O)C3CCN(S(=O)(=O)Cc4ccc(Cl)cc4)CC3)CC2)c1C`, the “% Inhibition” value is 1% and the Z score is -0.12.

As for `C[C@@H](Cn1nnnc1N1CCCC1)Oc1ccccc1F`, the “% Inhibition” value is -2% and the Z score was 0.2.

Turning to `CC(C)c1ncc(CN(C)C(=O)[C@@H]2C[C@H]3CC[C@@H]2O3)cn1`, the “% Inhibition” value is on record as 16% and the Z score was -1.84.

Consider `CC(=O)N[C@H]1CCN(c2cc(C)ncn2)C1`, for which the “% Inhibition” value worked out at 6% and the Z score is -0.74.

`FC(F)(F)c1nnc2ccc(NC3CCN(c4ncnc5c4CCCC5)CC3)nn12`: the “% Inhibition” value was -8% and the Z score was found to be 1.7.

`CO[C@@H](CNC(=O)N1CCNC1=O)c1ccc(Cl)s1`: the “% Inhibition” value is -19% and the Z score worked out at 2.37.

`Cc1nc(C)c(C(=O)N2CCCCCCNC(=O)CC2)s1`: the “% Inhibition” value is -12% and the Z score stood at 1.52.

Turning to `CCOc1ccccc1CN1CCN(C(=O)c2ccnc3c2ncn3C)[C@@H](C)C1`, the “% Inhibition” value is -1% and the Z score came to 0.18.

On to `CO[C@H]1CN(c2nc(-c3cc4ccccc4s3)ccc2C(=O)O)CC[C@H]1N`, for which the “% Inhibition” value is -14% and the Z score worked out at 1.83.

Consider `CC(C)c1nc(CC(=O)N[C@@H](C)CN2CCOCC2)cs1`, for which the “% Inhibition” value is 3% and the Z score is -0.52.

In the case of `CCN(CC)c1ccccc1COC(=O)[C@H]1CCc2cn[nH]c2C1`, the “% Inhibition” value is -9% and the Z score came to 1.49.

Regarding `FC1(F)CC(Cn2cc(Cl)cn2)C1`, the “% Inhibition” value is -7% and the Z score came to 1.36.

Consider `O=C(NCCc1cn[nH]c1)N1CCOCC1C1CCCO1` (stereo unspecified), for which the “% Inhibition” value was -1% and the Z score is recorded as 0.15.

For `CCCN1CCN(C(=O)c2cccc(N(C)C)c2)CC1`, the “% Inhibition” value is reported as -1% and the Z score amounted to 0.14.

Regarding `Cc1cnc(C(=O)OCc2coc(-c3ccc(F)cc3)n2)cn1`, the “% Inhibition” value is -4% and the Z score is 0.53.

Take `CCOC(=O)NC(=O)C(=CNc1cccc(Cl)c1)C(=O)NC(=O)OCC`: the “% Inhibition” value was -35% and the Z score came out at 4.1.

For `CC(=O)c1ccc(CNC(=O)c2cc(C(C)C)on2)nc1C`, the “% Inhibition” value amounted to 3% and the Z score is recorded as -0.29.

On to `O=S(=O)(N[C@@]12C[C@@H]1COC21CCC1)c1ccccc1`, for which the “% Inhibition” value was -10% and the Z score is given as 1.93.

With `Cc1[nH]c2ccccc2c1C1=CC(c2ccccc2)=NN=C(c2ccccc2)C1`, the “% Inhibition” value is listed as -11% and the Z score came to 1.74.

Turning to `O=C(CC1CC1)NCC[C@H](O)c1cccc(Cl)c1`, the “% Inhibition” value is on record as -17% and the Z score worked out at 2.15.

As for `O=S(=O)(N[C@H]1CCc2ncnn2C1)c1ccoc1`, the “% Inhibition” value was -2% and the Z score was found to be 0.41.

With `Cc1c(C)[n+](O)c([C@@H](CC(=O)O)c2ccc(-c3nc4ccccc4s3)o2)n1C`, the “% Inhibition” value is -8% and the Z score was found to be 1.

For `CC(C)N1CCN(C[C@]2(O)CCCN(CC(C)(C)C)C2=O)CC1`, the “% Inhibition” value is recorded as -10% and the Z score came out at 1.29.

`Cc1nc(-c2ccc(N3CCC(NCCCn4ccnc4)CC3)cc2)cs1`: the “% Inhibition” value is 40% and the Z score was -6.92.

Regarding `CC[C@@H](CNC(=O)CCc1cnn(C)n1)Oc1cccc(Cl)c1`, the “% Inhibition” value is -2% and the Z score came out at 0.25.

`Cc1cc(C)cc(C(O)CNC(=O)NCC(C)Cn2ccnc2C)c1` (stereo unspecified): the “% Inhibition” value was -6% and the Z score came out at 0.86.

`CO[C@H](C(=O)N1CCN(C(=O)c2ccccc2)CC1)c1ccccc1`: the “% Inhibition” value is given as 0% and the Z score is given as -0.02.

`Cc1nnc2n1[C@](C)(C(=O)NCCc1cccnc1)COC2`: the “% Inhibition” value was -13% and the Z score was found to be 1.52.

In the case of `CC(C)c1csc(-c2ccc(S(=O)(=O)NCc3ccccc3)s2)n1`, the “% Inhibition” value is -7% and the Z score is 0.85.

On to `COCCn1cnc2c(-c3ccccc3)cn(CC(=O)Nc3ccccc3C)c2c1=O`, for which the “% Inhibition” value is -4% and the Z score was found to be 0.63.

`CN(Cc1ncnn1-c1ccc(F)cc1F)[C@H]1CCS(=O)(=O)C1`: the “% Inhibition” value was -8% and the Z score was determined as 1.27.

`Cc1c[nH]c(CN2CCC(Oc3ccc4ncccc4c3)(C(=O)O)CC2)n1`: the “% Inhibition” value is recorded as -12% and the Z score is on record as 1.55.

For `CC(C)[C@H](NC(=O)Nc1ccc(C#N)nc1)C(N)=O`, the “% Inhibition” value is on record as -25% and the Z score is recorded as 3.15.

On to `C#CCCCC(=O)Nc1cc(Br)c(F)cc1OC`, for which the “% Inhibition” value is 34% and the Z score is on record as -3.83.

Regarding `Cc1cnn(CCC(=O)N2C(C)CN(C(=O)OC(C)(C)C)CC2C)c1` (stereo unspecified), the “% Inhibition” value was -7% and the Z score is listed as 0.88.

For `N#CCN(CC#N)S(=O)(=O)Cc1ccc(Cl)c(F)c1`, the “% Inhibition” value is -8% and the Z score is given as 0.92.

In the case of `CCN=C(N)N(C)Cc1cccc(OC)c1`, the “% Inhibition” value is -1% and the Z score was 0.08.

`COc1ccc(C)nc1-c1cnc2ccccc2c1`: the “% Inhibition” value is -16% and the Z score is listed as 2.12.

For the compound `CCN1CCN(C(=O)CCc2nnc(Cc3cccc(C)c3)o2)[C@@H](C)C1=O`, the “% Inhibition” value is -14% and the Z score came out at 2.64.

For `COc1ccc(CCNC(=O)c2nn[nH]c2Nc2ccccc2F)cc1OC`, the “% Inhibition” value is given as 14% and the Z score is -1.86.

For `COCCN1C(=O)C[S@+]([O-])C12CCN(C(=O)c1ccccc1)CC2`, the “% Inhibition” value is on record as -12% and the Z score is on record as 2.26.
